Biological target: T1, recombinant human PACAP/VIP R-2 receptor (human)
T1 chain: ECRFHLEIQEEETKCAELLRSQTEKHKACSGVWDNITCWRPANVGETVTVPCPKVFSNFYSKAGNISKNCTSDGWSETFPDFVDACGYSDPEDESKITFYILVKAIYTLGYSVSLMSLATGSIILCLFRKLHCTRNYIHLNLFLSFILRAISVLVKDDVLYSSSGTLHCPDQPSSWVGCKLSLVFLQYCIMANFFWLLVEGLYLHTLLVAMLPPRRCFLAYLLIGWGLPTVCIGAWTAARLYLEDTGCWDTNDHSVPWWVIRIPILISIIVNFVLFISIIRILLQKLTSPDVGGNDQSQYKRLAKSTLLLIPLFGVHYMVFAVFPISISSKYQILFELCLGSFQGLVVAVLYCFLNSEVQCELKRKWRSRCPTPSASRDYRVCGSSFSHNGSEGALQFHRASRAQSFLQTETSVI
Assay: competitive displacement of 125I-VIP on intact CHL cells expressing the receptor

binding result: no binding
B1: glucagon (ligand)
peptide: not shown

Reference: patent US5831051, “Receptor for peptide hormones involved in energy homeostasis, and method and compositions for use thereof” (The Rockefeller University, dated 1998)
